# Source: PubChem BioAssay AID686979 (National Center for Advancing Translational Sciences (NCATS), 2013)
# Several values for one entry are separate records, joined by “and”; a condition that tells them apart may be missing. Equal entries are not always repeated. In all, about 420,000 compounds went through this assay and about 50,000 (12%) were called active. The inconclusive results got no clear call from the source; some entries with a clear call stand among them for comparison. The call rests on the fitted dose curve; in most records, active means well fitted inhibition curve with a large enough effect; inconclusive means small, poorly fitted or top-dose-only effect; inactive means flat fitted curve, though single readings scatter. Potencies of inconclusive entries are doubtful fits and often do not repeat.
# Test: qHTS for Inhibitors of human tyrosyl-DNA phosphodiesterase 1 (TDP1): qHTS in cells in presence of CPT; further: nearly all actives have a fitted effect of over 55% in size
# Conditions: chicken DT40 Tdp1-/-;hTDP1 cells + 20 nM CPT, ATP luminescence, 48 h; activity change, negative = growth inhibition: at 46.2 µM (top of the series) unless noted
# Procedure, shortened: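 Cell growth measured by CellTiter-Glo luminescence after a minimum 48 h, 37 C compound exposure with 20 nM CPT in Tdp1-knockout DT40 cells stably expressing hTDP1, seeded 400/well; qHTS titration format.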
# On the % scale 0 is the no-effect control and ±100 the full control effect; potency means the concentration at half of the fitted maximal effect; tags describe the fitted curve by direction and shape.
Compound,Potency,"activity change, negative = growth inhibition"
O=C(NCC1CCCO1)c1cc(S(=O)(=O)N2CCCC2)c(Cl)cc1Cl (centres undefined),inactive,–
O=C(N/N=C/C=C/c1ccco1)c1cccs1,"inconclusive: 18.4 µM [inhibitor, single point]",–
O=S1(=O)CC(N2CC=CC2)CN1Cc1ccccc1 (centres undefined),"inconclusive: 23.1 µM [inhibitor, single point]",–
COc1ccc2oc(C(=O)Nc3cccc(S(=O)(=O)N4CCOCC4)c3)c(C)c2c1,"inconclusive: 29.1 µM [inhibitor, single point]",–
Cn1nnc(NC(=O)CSc2nnnn2-c2ccc(F)cc2)n1,–,inconclusive: -19.9% [inhibitor]
CCCN(CC(=O)Nc1ccc(F)c(F)c1F)C(=O)c1ccc2c(c1)NC(=O)CS2,"inconclusive: 25.9 µM [inhibitor, single point]",–
CC(C)c1cc(CN2CCN(CCC#N)CC2)cc(C(C)C)c1O,"inconclusive: 25.9 µM [inhibitor, single point]",–
NC(CCCCCP(=O)(c1ccccc1)c1ccccc1)C(=O)O (centres undefined),inactive,–
CCOc1ccc(NC(=O)c2ccc(-n3cccn3)nc2)cc1,inactive,–
COc1cc(C)c(C(=O)Oc2cc(C)c(C(=O)O)c(O)c2C)c(O)c1C,"inconclusive: 20.6 µM [inhibitor, single point]",–
Cn1c(=O)c2sccc2n2c(CCC(=O)NCc3ccc(Cl)cc3)nnc12,–,inconclusive: -30.2% [inhibitor]
O=C(NC(=S)NC1CCCc2ccccc21)c1ccc(F)cc1 (centres undefined),"inconclusive: 29.1 µM [inhibitor, single point]",–
Cc1ccc(S(=O)(=O)Nc2ccc(SC(F)F)cc2)c(C)c1,"inconclusive: 18.4 µM [inhibitor, single point]",–
CC(=O)c1ccc(N2CCN(C(=O)C3CCN(S(=O)(=O)c4cn(C)cn4)CC3)CC2)cc1,inactive,–
Cc1cccc2c1cnn2C(=O)Nc1ccccc1Cl,"inconclusive: 11.6 µM [inhibitor, partial curve]",–
O=C(NC1CCCCCC1)c1ccc(CS(=O)Cc2cccc(Cl)c2)o1 (centres undefined),"inconclusive: 16.4 µM [inhibitor, single point]",–
C=CCc1ccc(OCc2ccc(C(=O)OC)o2)c(OC)c1,inactive,–
Cc1ccc(Cl)cc1Nc1nn2c(=O)c3ccc(C(=O)NCc4ccc(F)cc4)cc3nc2s1,active: 2.06 µM,–
CCOC(=O)Cc1csc(NC(=O)CSc2nnc(-c3ccc(NS(=O)(=O)CC)cc3)o2)n1,inactive,–
CCCCC(CCCC)=N/N=C/c1c(O)n(CC)c2cc(C3=NNC(=O)CC3)ccc12,"inconclusive: 23.1 µM [inhibitor, single point]",–
CCC(=O)N(Cc1cc(=O)[nH]c2ccccc12)C1CCCCC1,"inconclusive: 25.9 µM [inhibitor, partial curve]",–
N#C/C(=N\Nc1ccc(S(=O)(=O)N2CCOCC2)cc1)C(N)=S,"inconclusive: 29.1 µM [inhibitor, single point]",–
Cc1cccc(-c2nc3scc(CCNS(=O)(=O)c4ccc5c(c4)OCCO5)n3n2)c1,active: 23.1 µM,–
CCOc1ccc(CNC(=O)Cc2ccc(NC(=O)N3CCSc4ncccc43)cc2)cc1,active: 16.4 µM,–
COC(=O)c1cc(S(=O)(=O)NCc2ccc(Br)cc2)c[nH]1,inactive,–

Compound,Potency,"activity change, negative = growth inhibition"
CCOC(=O)CSc1ccc(-c2nc3cc(C)c(C)cc3[nH]2)cn1,–,inconclusive: -34.9% [inhibitor]
CCOC(=O)c1ccc(NC(=O)c2cc(C)nc3ccccc23)cc1,inactive,–
CCN(CC)c1ccc(/C=N/NC(=O)c2cc3ccccc3[nH]2)cc1,"inconclusive: 29.1 µM [inhibitor, single point]",–
CC1=C(C(=O)N(C)C)CC(CC(=O)NCCN2CCOCC2)C(=O)N1Cc1ccc(F)cc1 (centres undefined),inactive,–
NNC(=O)c1nc(-c2cccc(-n3cccc3)c2)no1,"inconclusive: 23.1 µM [inhibitor, single point]",–
O=C(NCCCN1CCOCC1)c1ccc2c(=O)n(CCc3ccccc3)c(=O)[nH]c2c1,–,inconclusive: -38% [inhibitor]
O=C(Nc1cc(Cl)ccc1N1CCOCC1)c1ccco1,inactive,–
Cc1ccccc1Oc1nc(-c2ccccn2)nc2ccccc12,active: 4.11 µM,–
Cc1cc(-c2cccnc2)c(C#N)c(SCc2cccc(F)c2)n1,inactive,–
CCC(=O)c1ccc(OCC(O)CNC(C)c2ccccc2)cc1 (centres undefined),"inconclusive: 29.1 µM [inhibitor, single point]",–
CCN(CC)c1ccc(C=C(c2nnnn2-c2ccc(C)cc2)c2nnnn2-c2ccc(C)cc2)cc1,"inconclusive: 25.9 µM [inhibitor, single point]",–
CC1CCN(C(=O)c2ncn(C)c2C(=O)N2CCC(C)CC2)CC1,inactive,–
O=C(CN1CCN(S(=O)(=O)N2CCCCCC2)CC1)Nc1ccc(Br)cc1,"inconclusive: 25.9 µM [inhibitor, single point]",–
CCN(CC)C(=O)C1=C(C)N(Cc2ccc(OC)cc2)C(=O)C(CC(=O)NC2CC2)C1 (centres undefined),inactive,–
COCCNC(=O)c1ccc(CS(=O)(=O)c2ccc(C)cc2)o1,inactive,–
COc1ccc(-n2nnnc2SCC(=O)Nc2ccc(OC)cc2OC)cc1,inactive,–
COc1cc2c(cc1OC)CN(CCC(C)c1ccc(Cl)cc1)CC2 (centres undefined),active: 14.6 µM,–
C[C@H]1CN([C@@H](C)CO)C(=O)Cc2cc(NC(=O)Cn3cnnn3)ccc2O[C@H]1CN(C)Cc1ccncc1,inactive,–
COc1ccc(CC(=O)N2N=C(C)CC2(O)C(F)(F)F)cc1 (centres undefined),active: 2.91 µM,–
CC(=O)Nc1ccc(Oc2ccc(NC(C)=O)c(NC(C)=O)c2)cc1,inactive,–
Clc1ccccc1/C=C/c1nc(-c2ccccn2)no1,inactive,–
COc1ccccc1-c1cc(C(=O)NCc2ccccc2)c2c(-c3ccc(C)cc3)[nH]nc2n1,active: 23.1 µM,–
O=C(Nc1ncc(Cc2ccccc2)s1)C1CCCO1 (centres undefined),inactive,–
COc1ccccc1C1OC(c2cccc([N+](=O)[O-])c2)=NN1C(C)=O (centres undefined),inactive,–
COc1ccc(N2CCN(C(=O)c3oc4c(c3C)C(=O)CCC4)CC2)cc1,inactive,–

Compound,Potency,"activity change, negative = growth inhibition"
Cc1cc(NC(=O)CCC(=O)N(CCC(C)C)C(C(=O)NC2CCCC2)c2ccccc2C)no1 (centres undefined),"inconclusive: 20.6 µM [inhibitor, single point]",–
O=C(O)C(c1ccccc1)C(c1ccccc1)c1ccccc1 (centres undefined),inactive,–
COc1ccc(NC(=O)c2oc3ccccc3c2NC(=O)Cc2coc3c(C)c(C)ccc23)cc1,"inconclusive: 29.1 µM [inhibitor, single point]",–
Cc1ccc(S(=O)(=O)c2nc(S(=O)(=O)c3ccccc3)sc2NCCCOC(C)C)cc1,"inconclusive: 23.1 µM [inhibitor, single point]",–
Cn1nc2c3ccccc3n(Cc3ccc(F)cc3)c2nc1=S,inactive,–
CN1CCN(c2cc3c(cc2F)c(=O)c(C(=O)O)cn3CCF)CC1,"inconclusive: 8.2 µM [inhibitor, partial curve, poor fit]",–
COc1ccc(C2=NN(C(=O)CSc3nc4ncc(Cl)cc4[nH]3)C(c3ccco3)C2)cc1 (centres undefined),"inconclusive: 29.1 µM [inhibitor, single point]",–
COc1ccc(C(=O)NC(=S)NNC(=O)c2cccc(C)c2)cc1,active: 25.9 µM,–
C=CCOC(=O)C1=C[C@@H](c2ccc3c(c2)OCO3)C[C@@H](OCc2ccc(CO)cc2)O1,"inconclusive: 23.1 µM [inhibitor, single point]",–
CCc1ccc(NC(=O)Cn2ccn(-c3ccc(C)c(C)c3)c(=O)c2=O)cc1,inactive,–
CCOc1ccc(N=Cc2c(O)n(-c3cccc(C)n3)c(=O)c3ccccc23)cc1,"inconclusive: 12.6 µM [inhibitor, partial curve, poor fit]",–
O=C(COc1ccccc1)NNC(=S)NC(=O)c1ccccc1,"inconclusive: 25.9 µM [inhibitor, single point]",–
CCOc1ccccc1C(=O)N[C@H](C(=O)OCc1cc([N+](=O)[O-])cc2c1OCOC2)C(C)C,"inconclusive: 23.1 µM [inhibitor, single point]",–
CC1=CC(C)(C)NC(=S)N1c1ccc2ccccc2c1,"inactive and inconclusive: 2.59 µM [inhibitor, partial curve]",–
COc1ccc(NC(=O)/C(=C\c2ccc(OC)c(OC)c2)NC(=O)c2ccco2)cc1,inactive,–
CCNC(=S)Nc1cc(OCC)c(N2CCOCC2)cc1OCC,"inconclusive: 16.4 µM [inhibitor, single point]",–
Cc1ccc(OCc2cc(C(=O)N(C)Cc3nccn3C)no2)cc1C,inactive,–
Cc1cc(N2CCC(N(C)C3CCCC3)CC2)nc2cc(O)ccc12,"inconclusive: 29.1 µM [inhibitor, single point]",–
Cc1c(Cl)cccc1NC(=O)CCS(=O)(=O)c1ccc2c(c1)CC(=O)N2C,inactive,–
Cc1nc(C(=O)NNC(=O)c2ccc(C(F)(F)F)cc2)cs1,"inconclusive: 23.1 µM [inhibitor, single point]",–
C[C@]12c3[nH]c4ccc(Cl)cc4c3CCN1C(=O)[C@@H](CC(=O)NCCN1CCOCC1)C[C@@H]2C(=O)N1CCCCC1,"inconclusive: 18.4 µM [inhibitor, single point]",–
Cc1cc2nc(CN(C)Cc3c(C(=O)N(C)C)nc4ccc(Cl)cn34)[nH]c2cc1C,"inconclusive: 29.1 µM [inhibitor, single point]",–
O=C(CCN1C(=O)CSc2ccccc21)Nc1cccc(C(F)(F)F)c1,"inconclusive: 20.6 µM [inhibitor, single point]",–
CCOc1ccc(NC(=O)/C(C#N)=C\c2ccc(-c3ccc(Cl)cc3)o2)cc1,"inconclusive: 25.9 µM [inhibitor, single point]",–
